Test results: PubChem BioAssay AID504333 (National Center for Advancing Translational Sciences (NCATS), 2011)
Among all 360,000 compounds or so, about 16,000 (4.4%) were called active. The shares of active, inactive and inconclusive entries below differ from those in the screen. Calls follow the shape of the dose curve; as a rule, active = well fitted inhibition curve with a large enough effect; inconclusive = small, poorly fitted or top-dose-only effect; inactive = no such curve, though single readings can be large or run the other way. Potencies of inconclusive entries are doubtful fits and often do not repeat.

biological target: Bromodomain adjacent to zinc finger domain protein 2B (Homo sapiens) (UniProt Q9UIF8); assay: qHTS Assay for Inhibitors of BAZ2B; conditions: AlphaScreen BAZ2B-H3K14Ac peptide displacement; activity change, negative = inhibition: at 114 µM (top of the series) unless noted; also: nearly all actives have a fitted effect of over 60% in size
UniProt Q9UIF8, sequence (Q9UIF8 whole entry, looked up, the tested form may be a part): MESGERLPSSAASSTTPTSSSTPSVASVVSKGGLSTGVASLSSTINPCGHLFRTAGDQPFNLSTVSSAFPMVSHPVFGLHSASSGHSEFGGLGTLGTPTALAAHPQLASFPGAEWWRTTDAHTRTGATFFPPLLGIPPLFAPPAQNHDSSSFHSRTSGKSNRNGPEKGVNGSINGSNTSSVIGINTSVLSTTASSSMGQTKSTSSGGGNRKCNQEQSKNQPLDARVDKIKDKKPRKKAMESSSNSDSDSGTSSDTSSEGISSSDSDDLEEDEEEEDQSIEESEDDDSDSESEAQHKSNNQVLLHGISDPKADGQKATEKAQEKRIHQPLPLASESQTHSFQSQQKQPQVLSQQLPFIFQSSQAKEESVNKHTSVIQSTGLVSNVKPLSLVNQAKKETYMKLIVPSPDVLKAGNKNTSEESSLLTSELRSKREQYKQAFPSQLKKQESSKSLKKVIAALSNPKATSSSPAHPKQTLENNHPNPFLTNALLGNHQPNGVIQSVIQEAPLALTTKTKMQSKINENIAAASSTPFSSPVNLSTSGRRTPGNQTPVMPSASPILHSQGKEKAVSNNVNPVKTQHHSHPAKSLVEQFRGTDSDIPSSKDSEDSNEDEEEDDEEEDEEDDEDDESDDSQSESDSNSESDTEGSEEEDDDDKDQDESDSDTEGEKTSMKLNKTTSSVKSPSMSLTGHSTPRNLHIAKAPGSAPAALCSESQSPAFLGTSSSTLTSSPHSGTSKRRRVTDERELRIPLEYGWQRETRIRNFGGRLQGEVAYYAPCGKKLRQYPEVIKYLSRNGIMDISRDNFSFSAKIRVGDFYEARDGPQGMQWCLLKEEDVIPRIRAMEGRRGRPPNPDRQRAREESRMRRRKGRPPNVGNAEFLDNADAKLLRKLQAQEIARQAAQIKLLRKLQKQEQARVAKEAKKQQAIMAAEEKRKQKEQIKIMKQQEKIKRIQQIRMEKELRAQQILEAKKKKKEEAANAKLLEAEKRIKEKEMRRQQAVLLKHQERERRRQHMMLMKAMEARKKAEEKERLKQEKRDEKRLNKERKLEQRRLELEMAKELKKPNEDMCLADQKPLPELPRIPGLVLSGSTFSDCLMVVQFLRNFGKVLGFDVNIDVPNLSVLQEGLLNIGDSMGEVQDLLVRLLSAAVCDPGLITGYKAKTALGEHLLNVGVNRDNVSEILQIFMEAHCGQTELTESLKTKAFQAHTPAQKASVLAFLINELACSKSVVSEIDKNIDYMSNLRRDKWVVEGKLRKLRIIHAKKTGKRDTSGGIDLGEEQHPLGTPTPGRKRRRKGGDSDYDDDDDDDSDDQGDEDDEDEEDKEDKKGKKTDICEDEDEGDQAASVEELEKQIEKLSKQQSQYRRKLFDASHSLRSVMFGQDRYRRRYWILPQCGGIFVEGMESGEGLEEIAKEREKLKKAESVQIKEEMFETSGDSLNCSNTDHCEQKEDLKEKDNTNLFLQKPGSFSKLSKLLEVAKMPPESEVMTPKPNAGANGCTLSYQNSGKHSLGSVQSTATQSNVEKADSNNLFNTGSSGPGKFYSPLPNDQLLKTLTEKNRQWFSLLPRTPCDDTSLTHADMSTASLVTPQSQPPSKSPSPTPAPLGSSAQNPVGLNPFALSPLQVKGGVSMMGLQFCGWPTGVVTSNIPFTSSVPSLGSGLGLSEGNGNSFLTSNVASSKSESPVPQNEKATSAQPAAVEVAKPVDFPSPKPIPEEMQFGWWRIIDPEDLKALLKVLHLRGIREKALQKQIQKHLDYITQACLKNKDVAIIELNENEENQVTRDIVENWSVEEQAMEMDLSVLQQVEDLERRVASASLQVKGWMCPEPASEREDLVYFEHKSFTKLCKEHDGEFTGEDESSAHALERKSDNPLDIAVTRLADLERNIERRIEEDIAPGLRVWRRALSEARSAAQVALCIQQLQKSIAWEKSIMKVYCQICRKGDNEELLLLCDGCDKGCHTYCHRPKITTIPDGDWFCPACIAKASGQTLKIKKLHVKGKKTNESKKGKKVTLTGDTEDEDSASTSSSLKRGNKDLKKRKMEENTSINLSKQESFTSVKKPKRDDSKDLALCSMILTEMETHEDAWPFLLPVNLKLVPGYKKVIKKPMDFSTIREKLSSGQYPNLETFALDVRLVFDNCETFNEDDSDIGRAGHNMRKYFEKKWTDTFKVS
Method in brief: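 Compounds, titrated to a top concentration of 110 uM, were incubated 30 min at room temperature with preformed BAZ2B/acetyl-K14 H3 peptide complex (50 nM each). Proximity signal was measured by AlphaScreen after 20 min with beads.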
% is scaled to controls: 0 for no effect and ±100 for the full control effect; potency is read from the fitted curve at half-maximal effect; tags tell the direction and shape of the fitted curve.

Structure (SMILES)	Potency	activity change, negative = inhibition
CC1CCc2nc(NC(=O)Cc3cccs3)sc2C1 (configuration not stated)	inconclusive: 4.47 µM [inhibitor, full curve, poor fit]	–
CCOc1ccc(-n2c(N)c(C(=O)NCC3CCCO3)sc2=S)cc1 (configuration not stated)	inconclusive: 89.1 µM [inhibitor, single point]	–
Cc1ccc(S(=O)(=O)N2CCC(C)CC2)c([N+](=O)[O-])c1	–	inactive: -24.7%
CC1CCCN(C(=S)SCC(=O)c2cc(Br)cc(Br)c2O)C1 (configuration not stated)	inconclusive: 50.1 µM [inhibitor, partial curve]	–
COc1ccc(-n2c(C)c3c(OC)cccc(=O)c3c2C)cc1	inconclusive: 50.1 µM [inhibitor, partial curve]	–
Cc1cc(-c2ccccc2)nnc1NCCN1CCOCC1	inconclusive: 79.4 µM [inhibitor, single point]	–
O=C(O)c1ccc(N2C(=O)CC(SC(=NCc3ccc4c(c3)OCO4)Nc3ccc(F)cc3)C2=O)cc1 (configuration not stated)	inconclusive: 44.7 µM [inhibitor, partial curve]	–
Cc1cc(C(=O)COC(=O)c2ccc(Br)o2)c(C)n1C	inconclusive: 70.8 µM [inhibitor, single point]	–
CCOC(=O)c1c(C)[nH]c(C(C)=O)c1C	inconclusive: 89.1 µM [inhibitor, single point]	–
CC(C)Nc1nc(Cl)nc(NN(C)c2nc(N(C)C)nc(N(C)C)n2)n1	–	inactive: -1.77%
O=S(=O)(c1cc(Cl)ccc1Cl)N1CCN2CCCC2C1 (configuration not stated)	–	inactive: -8.69%
CSCC[C@H](NC(=O)NCCC1=CCCCC1)C(=O)O	inconclusive: 89.1 µM [inhibitor, single point]	–
CC(=O)N1CCc2c(sc3c2c(=O)n(-c2ccccc2Cl)c(=O)n3Cc2cccc(C)c2)C1	–	inactive: -31.2%
CC(=O)c1cccc(NC(=O)CCc2c(C)nc3nc(CN)nn3c2C)c1	active: 50.1 µM	–
COc1ccccc1NC(=O)CSc1cn(CC(=O)N2CCCC2)c2ccccc12	inconclusive: 79.4 µM [inhibitor, single point]	–
CC(C)C1=NN(C(=O)c2ccccc2)C(O)(C(C)(C)C)C1 (configuration not stated)	inconclusive: 100 µM [inhibitor, single point]	–
Cc1cc(/C=N/NC(=O)CC#N)c(C)n1-c1ccc([N+](=O)[O-])cc1	inconclusive: 79.4 µM [inhibitor, single point]	–
CCOC(=O)c1ccc(CS(=O)c2ccc(Cl)cc2)o1 (configuration not stated)	inconclusive: 56.2 µM [inhibitor, partial curve]	–
COc1ccccc1C(=O)NC(=O)COC(=O)CNC(=O)c1ccc(Cl)cc1Cl	–	inactive: 6.36%
O=C(O)c1cccc2c1C(=O)c1ccc(-c3ccc(Cl)c(C(F)(F)F)c3)cc1S2(=O)=O	inconclusive: 89.1 µM [inhibitor, single point]	–
COc1ccc(/C=C/C(=O)Oc2cc(O)cc(O)c2)cc1	inconclusive: 89.1 µM [inhibitor, single point]	–
Cc1ccc(Oc2nc3c(c(=O)n(Cc4ccccc4F)c(=O)n3C)n2C)cc1	inconclusive: 39.8 µM [inhibitor, partial curve]	–
Cn1cccc1/C=N/n1c(-c2ccccc2)n[nH]c1=S	inconclusive: 50.1 µM [inhibitor, partial curve]	–
COc1ccc(-c2nc(C#N)c(NC(C)c3ccccc3)o2)cc1OC (configuration not stated)	inconclusive: 89.1 µM [inhibitor, single point]	–

Structure (SMILES)	Potency	activity change, negative = inhibition
Cc1ccc(N=Nc2ccc(N)cc2C)c(S(N)(=O)=O)c1	active: 50.1 µM	–
COc1ccccc1/C=C\C=N\n1c(C2CCCCC2)n[nH]c1=S	inconclusive: 35.5 µM [inhibitor, full curve]	–
COc1ccc(C(=O)N(Cc2ccc(N(C)C)cc2)CC2CCCO2)cc1 (configuration not stated)	inconclusive: 44.7 µM [inhibitor, partial curve]	–
Cc1ccc2[nH]c(=O)c(CN(CC3CCCO3)C(=S)NCc3ccco3)cc2c1 (configuration not stated)	–	inactive: -38.3%
Cc1ccccc1OCc1nc(C#N)c(N2CCCC2)o1	active: 44.7 µM	–
Cc1ccc(C2NC(=S)NC3=C2N2CCC3CC2)cc1 (configuration not stated)	inconclusive: 89.1 µM [inhibitor, single point]	–
CCc1cc(C(=O)N/N=C/c2ccc(O)cc2O)c2ccccc2n1	active: 44.7 µM	–
COC(=O)c1ccccc1C(=O)N1CCCC(CCC(=O)NCc2ccc(F)c(F)c2)C1 (configuration not stated)	–	inactive: -26.4%
CS(=O)(=O)c1cccc(-c2csc(N3CCC(C(N)=O)CC3)n2)c1	inactive	–
O=C(NCCc1ccccc1)c1ccc(-c2ccc(F)cc2)o1	inconclusive: 39.8 µM [inhibitor, partial curve]	–
CC(=O)Nc1ccc(NC(=O)C(C)OC(=O)c2oc3ccccc3c2C)cc1 (configuration not stated)	inconclusive: 89.1 µM [inhibitor, single point]	–
COc1ccc(S(=O)(=O)N2CCC(C(=O)NCCN3CCOCC3)CC2)cc1OC	–	inactive: 2.52%
CC(C)c1ccc(NC2CCCN(C(=O)c3cnsn3)C2)cc1 (configuration not stated)	inconclusive: 39.8 µM [inhibitor, partial curve]	–
COc1ccc(OC(=O)c2ccc(Cl)cc2)c(C(C)=O)c1	–	inactive: 104%
CN(C)S(=O)(=O)c1ccc(C(=O)Nc2cc3c(cc2C(=O)O)OCCCO3)cc1	inconclusive: 79.4 µM [inhibitor, single point]	–
CCOc1ccc(NC(=S)Nc2ccc(OCc3ccccc3)cc2)cc1	inconclusive: 100 µM [inhibitor, single point]	–
O=C(CSC1=NS(=O)(=O)c2cc(F)ccc2N1)NCc1ccccc1Cl	–	inactive: 10.3%
COc1ccccc1CNC(=S)Nc1cc(C)ccc1C	inconclusive: 44.7 µM [inhibitor, partial curve]	–
CCCN1C/C(=C/c2ccc3c(c2)OCO3)C(=O)/C(=C/c2ccc3c(c2)OCO3)C1	active: 50.1 µM	–
O=C(Oc1cccc2cccnc12)c1cccc([N+](=O)[O-])c1	active: 15.8 µM	–
O=C(O)c1ccccc1Sc1ccccc1S(=O)(=O)NC1CCCCC1	–	inactive: -4.09%
CCCN1CCN(S(=O)(=O)c2ccc3c(c2)NC(=O)C(C)C(=O)N3)CC1 (configuration not stated)	inconclusive: 89.1 µM [inhibitor, single point]	–
C/C(CC(=O)Nc1ccc(N(C)C)cc1)=N\NC(=O)Cc1csc(N)n1	inconclusive: 50.1 µM [inhibitor, partial curve]	–
O=C(Nc1ncccc1O)c1cc2ccccc2o1	inconclusive: 89.1 µM [inhibitor, single point]	–

Structure (SMILES)	Potency	activity change, negative = inhibition
c1ccc(-c2nnc(N3CCOCC3)c3ccccc23)cc1	inconclusive: 79.4 µM [inhibitor, single point]	–
Fc1ccc(N=C2NN=C(c3cc(F)ccc3F)CS2)cc1	inconclusive: 70.8 µM [inhibitor, single point]	–
O=C(Nc1nc2n(n1)C(c1ccccc1)C=C(c1ccc(Cl)cc1)N2)c1ccco1 (configuration not stated)	active: 79.4 µM	–
Cc1cc(C(=O)COc2cc(F)ccc2[N+](=O)[O-])c(C)n1C1CC1	inconclusive: 50.1 µM [inhibitor, partial curve]	–
COc1ccc(N2Cc3cccc(C(=O)Nc4ccc(Cl)cc4)c3C2=O)cc1	inconclusive: 31.6 µM [inhibitor, full curve]	–
COc1ccc(-c2cn3c(C)c(C(=O)N4CCc5ccccc5C4)sc3n2)cc1	inconclusive: 22.4 µM [inhibitor, full curve, poor fit]	–
N#C/C(C(=O)c1ccccc1)=C1/SC=C(N)N1c1ccccc1	active: 44.7 µM	–
CCN1C(=O)/C(=C2\SC(=S)N(NC(=O)c3cccnc3)C2=O)c2ccccc21	inconclusive: 39.8 µM [inhibitor, partial curve]	–
Cc1oc2ccccc2c1-c1cn2c(n1)SCC2	–	inactive: -32.7%
CC(C)(C)OC(=O)CN1C(=O)S/C(=C\c2ccc(-c3cccc(C(=O)O)c3)o2)C1=O	inconclusive: 89.1 µM [inhibitor, single point]	–
O=S(=O)(NCc1ccccc1F)c1cccc(S(=O)(=O)N2CCOCC2)c1	inconclusive: 89.1 µM [inhibitor, single point]	–
COc1ccc(C2=C(Nc3ccc(C)cc3)c3ccccc3C2=O)cc1	inconclusive: 8.91 µM [inhibitor, full curve, poor fit]	–
Nc1ccccc1Nc1c(F)c(F)nc(F)c1Cl	inconclusive: 50.1 µM [inhibitor, partial curve]	–
Nc1c(C(=O)Nc2nccs2)sc2nc(-c3cccs3)cc(C(F)(F)F)c12	inconclusive: 56.2 µM [inhibitor, partial curve]	–
COc1ccc(CC(=O)Nc2ccc(N3CCCC3)c(C)c2)cc1	inconclusive: 50.1 µM [inhibitor, partial curve]	–
CC1CN(CCOCCSc2ccc(Cl)cc2)CC(C)O1 (configuration not stated)	active: 50.1 µM	–
O=C(NCc1ccc2c(c1)OCO2)C1CCCN1C(=O)Nc1ccc(Cl)cc1 (configuration not stated)	–	inactive: 11.2%
O=C(CN1CCN(S(=O)(=O)c2ccccc2)CC1)Nc1ccc(Cl)c([N+](=O)[O-])c1	–	inactive: -4.72%
O=C(NCCCNc1ccc([N+](=O)[O-])cc1)C(F)(F)F	inconclusive: 89.1 µM [inhibitor, partial curve]	–
CCc1ccc(C(=O)C(C)OC(=O)Cn2cnc3c2c(=O)n(C)c(=O)n3C)cc1 (configuration not stated)	–	inactive: 14.2%
O=C(CCCOc1cccc(Br)c1)NCCOc1ccccc1	–	inactive: 41.2%
O=C(N/N=C(\Cc1ncc[nH]1)c1ccccc1)c1cccnc1	active: 14.1 µM	–
COc1ccc(CCC(=O)NNC(=O)c2ccccn2)cc1OC	–	inactive: 0.57%
COc1ccc(S(=O)(=O)N2CCOC2CNC(=O)C(=O)NCc2ccccn2)cc1C (configuration not stated)	–	inactive: -1.51%
